According to the CheMixHub ionic liquid set:
The source gives many values for each of these; only a part stands here.

Assay: xn = mol fraction of the nth substance listed
Settings: 100 kPa

CCCCCCCC[n+]1ccccc1.[Br-] + NCC(=O)O + O
Settings | electrical conductivity [S/m]
288.15 K, x2 = 0.001787, x1 = 0.006289 | 1.24
288.15 K, x2 = 0.001787, x1 = 0.006476 | 1.26
288.15 K, x2 = 0.001788, x1 = 0.00597 | 1.21
288.15 K, x2 = 0.001789, x1 = 0.005259 | 1.15
288.15 K, x2 = 0.001789, x1 = 0.005628 | 1.18
288.15 K, x2 = 0.00179, x1 = 0.004853 | 1.1
288.15 K, x2 = 0.001791, x1 = 0.004411 | 1.05
288.15 K, x2 = 0.001792, x1 = 0.003921 | 0.977
293.15 K, x2 = 0.001787, x1 = 0.006281 | 1.41
293.15 K, x2 = 0.001787, x1 = 0.006471 | 1.43
293.15 K, x2 = 0.001788, x1 = 0.005965 | 1.38
293.15 K, x2 = 0.001789, x1 = 0.005253 | 1.3
293.15 K, x2 = 0.001789, x1 = 0.005622 | 1.34
293.15 K, x2 = 0.00179, x1 = 0.00485 | 1.25
293.15 K, x2 = 0.001791, x1 = 0.004406 | 1.18
293.15 K, x2 = 0.001792, x1 = 0.003917 | 1.11
298.15 K, x2 = 0.001787, x1 = 0.006274 | 1.6
298.15 K, x2 = 0.001787, x1 = 0.00646 | 1.62
298.15 K, x2 = 0.001788, x1 = 0.005957 | 1.55
298.15 K, x2 = 0.001789, x1 = 0.005246 | 1.46
298.15 K, x2 = 0.001789, x1 = 0.005614 | 1.51
298.15 K, x2 = 0.00179, x1 = 0.004842 | 1.41
298.15 K, x2 = 0.001791, x1 = 0.004401 | 1.33
298.15 K, x2 = 0.001792, x1 = 0.003912 | 1.24
303.15 K, x2 = 0.001787, x1 = 0.006265 | 1.79
303.15 K, x2 = 0.001787, x1 = 0.006451 | 1.81
303.15 K, x2 = 0.001788, x1 = 0.005948 | 1.74
303.15 K, x2 = 0.001789, x1 = 0.005239 | 1.64
303.15 K, x2 = 0.001789, x1 = 0.005606 | 1.69
303.15 K, x2 = 0.00179, x1 = 0.004835 | 1.57
303.15 K, x2 = 0.001791, x1 = 0.004395 | 1.48
303.15 K, x2 = 0.001792, x1 = 0.003906 | 1.38
308.15 K, x2 = 0.001787, x1 = 0.006441 | 2.06
308.15 K, x2 = 0.001788, x1 = 0.005938 | 1.96
308.15 K, x2 = 0.001788, x1 = 0.006255 | 2.03
308.15 K, x2 = 0.001789, x1 = 0.00523 | 1.82
308.15 K, x2 = 0.001789, x1 = 0.005597 | 1.89
308.15 K, x2 = 0.00179, x1 = 0.004828 | 1.73
308.15 K, x2 = 0.001791, x1 = 0.004386 | 1.64
308.15 K, x2 = 0.001792, x1 = 0.003901 | 1.51
